Measurements published in publication PMC4336329 (PLoS ONE, 2015).
About 2,200 (0.71%) of roughly 310,000 compounds showed an effect of 50% or more. The effect is printed as a negative number. This is one part of the list.

Target: human ether-à-go-go-related gene (hERG) potassium channel (human, UniProt Q12809)
Assay: primary screen, population patch clamp on CHO cells stably expressing hERG

Sequence of human ether-à-go-go-related gene (hERG) potassium channel (Q12809 whole entry, looked up): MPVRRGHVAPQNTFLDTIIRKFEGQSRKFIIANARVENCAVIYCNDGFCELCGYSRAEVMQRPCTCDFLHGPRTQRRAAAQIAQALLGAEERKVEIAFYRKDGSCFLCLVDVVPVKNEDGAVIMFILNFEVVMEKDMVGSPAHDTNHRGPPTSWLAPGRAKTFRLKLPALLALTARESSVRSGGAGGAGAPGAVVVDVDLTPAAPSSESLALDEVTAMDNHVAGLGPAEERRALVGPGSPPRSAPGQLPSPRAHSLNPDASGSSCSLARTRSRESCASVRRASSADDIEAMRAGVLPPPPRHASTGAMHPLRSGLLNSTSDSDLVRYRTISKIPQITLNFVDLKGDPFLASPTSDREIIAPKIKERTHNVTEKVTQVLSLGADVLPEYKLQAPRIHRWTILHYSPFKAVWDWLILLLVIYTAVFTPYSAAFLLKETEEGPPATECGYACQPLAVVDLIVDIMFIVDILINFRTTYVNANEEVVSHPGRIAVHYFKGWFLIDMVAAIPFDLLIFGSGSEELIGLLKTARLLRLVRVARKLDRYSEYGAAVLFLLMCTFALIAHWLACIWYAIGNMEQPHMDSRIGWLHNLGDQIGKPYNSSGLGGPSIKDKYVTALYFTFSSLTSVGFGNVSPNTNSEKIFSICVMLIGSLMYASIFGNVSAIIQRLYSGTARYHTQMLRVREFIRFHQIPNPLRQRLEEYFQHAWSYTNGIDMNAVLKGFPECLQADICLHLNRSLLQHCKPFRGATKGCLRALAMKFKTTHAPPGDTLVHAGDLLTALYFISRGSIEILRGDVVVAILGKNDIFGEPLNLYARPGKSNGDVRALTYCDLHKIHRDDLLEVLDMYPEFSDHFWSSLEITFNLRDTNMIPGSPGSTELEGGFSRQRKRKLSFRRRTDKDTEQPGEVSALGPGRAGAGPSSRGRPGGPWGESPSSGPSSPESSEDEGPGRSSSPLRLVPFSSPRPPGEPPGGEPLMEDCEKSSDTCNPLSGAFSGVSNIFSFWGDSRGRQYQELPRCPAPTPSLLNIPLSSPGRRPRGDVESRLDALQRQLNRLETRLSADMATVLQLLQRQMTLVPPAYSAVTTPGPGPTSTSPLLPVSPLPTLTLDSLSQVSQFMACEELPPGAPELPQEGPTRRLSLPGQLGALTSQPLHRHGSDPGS

Row | SMILES | hERG current change (%, negative = inhibition) at 1uM [%]
1 | COCc1cc(C)nc(N/N=C/c2ccc(Cl)c(Cl)c2)c1C#N | 12.4
2 | CC1(C)CC(=O)c2c(nn(-c3ccccc3)c2N)C1 | 20.2
3 | CC(CCN1C(Nc2ccccc2)=NC[C@@H]1C)c1ccccc1 (some centres unmarked) | -29.6
4 | O=C(CCN1C(=O)c2ccccc2S1(=O)=O)Nc1ccc(F)c(F)c1F | -1.67
5 | Cn1nc(-c2ccccc2)c(-c2nc(-c3cccc(Cl)c3)no2)c1Cl | 9.29
6 | COc1ccc(OC)c(-n2c(=S)[nH]c3cc(C(=O)N4CCCCC4)ccc3c2=O)c1 | 16.9
7 | Cc1cc(Br)c(Cl)cc1NC(=O)CN1C(=O)C2C3CC(c4ccccc4)C(C3)C2C1=O (centres unmarked) | 10.5
8 | O=C(c1ccccc1F)N1CCOCC1 | 13.3
9 | CCOc1cccc(NC(=O)c2cnccc2C(F)(F)F)c1 | 0.997
10 | COc1ccc(NC(=O)C2=C(C)NC(=O)NC2c2ccccc2[N+](=O)[O-])cc1 (centres unmarked) | 12.3
11 | O=C(N/N=C/c1ccco1)c1ccncc1 | 13.6
12 | Cc1nc(-c2ccc(NC(=O)c3ccco3)cc2)cs1 | 16.1
13 | OCc1nnn(-c2cccc(C(F)(F)F)c2)c1CO | 11.3
14 | COc1cccc2c1OCC(CN1CCN(Cc3ccccc3F)C(CCO)C1)=C2 (centres unmarked) | 12
15 | O=C(N/N=C/C(Cl)=C/c1ccccc1)c1ccncc1 | 7.86
16 | O=C(NNC(=S)Nc1ccccc1)C1CCCCC1 | 17.5
17 | CC(C)c1nc(SCC(=O)N2CCCc3ccccc32)c2c(=O)n(C)c(=O)n(C)c2n1 | 7.58
18 | CC(C)[C@H](NC(=O)c1ccccc1)C(=O)OCC(=O)Nc1ccc(Cl)cc1C(F)(F)F | 11.3
19 | COC(=O)C(CC(C)C)N1CCC(=O)c2ccccc2S1(=O)=O (centres unmarked) | 4.94
20 | Cc1cc(C2C(=O)C(C(=O)c3ccc(Cl)cc3)C(=O)CC2(C)C)on1 (centres unmarked) | 3.56
21 | O=C(CSc1nnnn1-c1cccc2c1CCCC2)N1CCOCC1 | 14.8
22 | Cc1ccccc1NCC(=O)N/N=C/c1c[nH]c2ccccc12 | 10.5
23 | COc1cc(C)ccc1OCCOc1c(C)cccc1Cl | 8.94

Row | SMILES | hERG current change (%, negative = inhibition) at 1uM [%]
24 | CC(NC(=O)c1cccc(OC2CCN(C(=O)C3CC3)CC2)c1)c1ccc(F)cc1 (centres unmarked) | 7.37
25 | Cc1ccnc(N2CCN(C(=O)CSc3nc4ccccc4nc3N3CCC(C)CC3)CC2)c1 | 7.39
26 | O=C(COC(=O)CCSc1ccc(Cl)cc1)NCc1ccco1 | 14
27 | Nc1ccc(S(=O)(=O)N2CCCC2)cc1Cl | 9.49
28 | COC(=O)CCc1nc2ccccc2[nH]c1=O | -6.48
29 | COc1ccc(/C=C2\SC(=S)N(CCC(=O)Nc3cccc(C(=O)O)c3)C2=O)cc1OC | 9.68
30 | COc1ccc(CC(=O)Nc2ccc(-c3cn4cccc(C)c4n3)cc2)cc1OC | -1.68
31 | Cc1cc(Cl)c2oc(C(=O)N3CCC(O)(c4ccccc4)CC3)c(C)c2c1 | 13.4
32 | CCOC(=O)C1=NN(C(=O)Cc2ccccc2)C(O)(C(C)(C)C)C1 (centres unmarked) | 5.39
33 | O=C(Cn1cc(C(=O)C2CC2)c2ccccc21)NCc1ccccc1 | 10.1
34 | COc1cc(/C=C/c2cc[n+](C)cc2)ccc1OCC(=O)Nc1ccc(Cl)c(Cl)c1.[I-] | 8.29
35 | O=C1c2ccccc2C(=O)N1CC1c2ccccc2CCN1C(=O)N1CCOCC1 (centres unmarked) | -2.07
36 | COc1ccc2nc3c(cc2c1)c(NC(=O)c1cccs1)nn3CC(C)C | 8.83
37 | Cc1ccc(S(=O)(=O)/N=c2\sccn2C)cc1 | 16.9
38 | CCOC(=O)/C(=C\Nc1ccc(OC(F)(F)F)cc1)Sc1ncc(C(F)(F)F)cc1Cl | 12.6
39 | Cc1ccc(C(=O)CC2C(=O)N(c3ccccc3)C(=S)N2c2ccccc2)cc1 (centres unmarked) | -0.545
40 | O=C1c2ccccc2C(=O)N1CCSc1nc2ccccc2c(=O)n1CCCN1CCOCC1 | 8.97
41 | CC(C)OC(=O)Cn1nc(C(c2ccccc2)c2ccccc2)oc1=O | 3.61
42 | CNc1nc(Cl)c(SC)c(N2CCOCC2)n1 | 4.79
43 | COc1cc(NS(=O)(=O)c2ccc(NC(C)=O)cc2)ncn1 | 2.6
44 | COc1ncccc1-c1nnn(-c2ccc(F)cc2)n1 | 10.2
45 | CCOC(=O)c1ccc(-c2ccc(C3Nc4ccccc4C(=O)N3O)o2)cc1 (centres unmarked) | 17.6
46 | Cl.N#Cc1ccc(OCC(=O)N2CCN(Cc3ccc4c(c3)OCO4)CC2)cc1 | -22

Row | SMILES | hERG current change (%, negative = inhibition) at 1uM [%]
47 | CCC(C)(C)NC(=O)C(c1ccc(F)cc1)N(Cc1ccc(OC)cc1)C(=O)c1cnccn1 (centres unmarked) | 2.57
48 | CC(NC(=O)c1ccco1)C(c1cccs1)N1CCN(c2ccccc2F)CC1 (centres unmarked) | 4.85
49 | CC(C)(C)C(=O)NC(=S)NNC(=O)c1sc2ccccc2c1Cl | 3.94
50 | O/N=C1/C(=C\c2ccccc2)N2CCC1CC2 | 8.41
51 | NS(=O)(=O)c1ccc(Sc2nc3ccccc3s2)c([N+](=O)[O-])c1 | 11.7
52 | CC(C)C1S/C(=N/N=C/c2ccco2)NC1=O (centres unmarked) | 0.697
53 | COc1ccccc1NC(=O)CSc1n[nH]c(Cc2ccccc2)n1 | 14
54 | O=C1C2C(c3ccccc3)C=CC(c3ccccc3)C2C(=O)N1CCO (centres unmarked) | 5.96
55 | CC1(C)CC(NS(=O)(=O)c2ccc(S(=O)(=O)N3CCOCC3)cc2)CCO1 (centres unmarked) | 5.73
56 | CCOC(=O)c1ccc(NC(=S)NCCc2ccc(F)cc2)cc1 | 16.5
57 | Cc1cccc(C(=O)c2cn[nH]c2-c2ccccc2O)c1 | 12.9
58 | CC(C)Cn1c(S(=O)(=O)O)nc2ccccc21 | 10.5
59 | CCOc1ccc(N2C(=O)c3cccnc3C2Nc2ccc(C)c(C)c2)cc1 (centres unmarked) | -11.5
60 | CCOc1ccc(NC(=O)CCC(=O)NNC(=O)c2ccccc2Cl)cc1 | 9.97
61 | Cc1ccc(C(C)C)c(O)c1 | 17.6
62 | COc1cccc(CN2c3ccc(Br)cc3C(=O)CS2(=O)=O)c1 | 9.69
63 | CCOC(=O)c1[nH]c2ccccc2c1NC(=O)CCN1CC(C)OC(C)C1 (centres unmarked) | 8.6
64 | CC(=O)Nc1ccc(-c2cn3cc(C)ccc3n2)cc1 | 6.73
65 | CSCCC(NC(=O)c1ccccc1)C(=O)N(C)CC(=O)Nc1ccc(N2CCOCC2)cc1 (centres unmarked) | 7.93
66 | CCOC(=O)C1(CCCc2ccccc2)CCN(S(=O)(=O)N(C)C)CC1 | 6.81
67 | CCOC(=O)CS(=O)(=O)c1ccc(C(F)(F)F)cn1 | -3.12
68 | Cc1ccc(/C=C/S(=O)(=O)Nc2ccc(C)cc2)cc1 | -11.4
69 | Cc1cccc(Cn2c(NCC(C)O)nc3c2c(=O)n(C)c(=O)n3C)c1 (centres unmarked) | 11.8

Row | SMILES | hERG current change (%, negative = inhibition) at 1uM [%]
70 | O=C1c2ccccc2NC(c2ccc(O)c(O)c2)N1c1ccccc1Cl (centres unmarked) | 14.8
71 | COc1ccccc1-c1c(C)nn2c(N3CCN(Cc4ccccc4)CC3)cc(C)nc12 | 6.35
72 | Cc1cccc2cc(COC(=O)c3cccs3)c(=O)[nH]c12 | 3.69
73 | c1cc(-c2nnc3sc(C4CCCCC4)nn23)ccn1 | -16.1
74 | CCOC(=O)c1oc2ccccc2c1COC(=O)C(C)NC(=O)c1ccco1 (centres unmarked) | 7.97
75 | Cc1ccsc1CNC(=O)c1c(-c2ccccc2)noc1C | 20.3
76 | Cc1cc(C)n(CC(=O)N/N=C/c2ccc3c(c2)OCO3)n1 | 16.7
77 | O=C1CC(N2CCN(c3ccc(Cl)c(Cl)c3)CC2)C(=O)N1 (centres unmarked) | 2.61
78 | Cc1sc(NC(=O)c2ccco2)c(C(c2ccncc2)N2CCOCC2)c1C (centres unmarked) | -4.44
79 | CC(C)NC(=O)CSc1nc(N)c(NC(=O)c2ccco2)c(=O)[nH]1 | 10.2
80 | Cc1ccccc1S(=O)(=O)Cc1ccc(C(=O)NCc2ccccc2)o1 | -0.459
81 | COc1ccc(CNC(=O)C2(C)Cc3ccccc3C(=O)O2)cc1 (centres unmarked) | 22.5
82 | CC1Cc2ccccc2N1S(=O)(=O)c1cccc(C(=O)OCC(=O)NCc2ccco2)c1 (centres unmarked) | 9.96
83 | Cc1ccc(N2C(=O)C3NN=C(C(=O)OCc4ccccc4)C3C2=O)cc1 (centres unmarked) | 5.92
84 | O=C(C1=C(O)C(=O)N(c2ncccn2)C1c1ccc(F)cc1)c1ccco1 (centres unmarked) | 15.3
85 | Cc1csc(NC(=O)CSc2nnc(NC(=O)C3CC(=O)N(c4ccccc4)C3)s2)n1 (centres unmarked) | 2.79
86 | Cc1ccc(S(=O)(=O)c2ccc(NC(=O)c3c(F)cccc3F)cc2)cc1 | 18.1
87 | CCN(C(=O)CCc1ccccc1)C1CCCCC1 | 17
88 | COc1ccc(CCNC(=O)CCCCC(=O)NCCc2ccc(OC)cc2)cc1 | 11.5
89 | COc1ccccc1Nc1nc(NCC(C)C)nc(N)c1[N+](=O)[O-] | 16.2
